# Test results reported in PubChem BioAssay (Tox21).
# Values joined by “and” are separate entries in the source; they are usually repeats but may differ in a detail not shown here. Equal entries are not always repeated. The inconclusive results got no clear call from the source; some entries with a clear call stand among them for comparison. Potencies beside an inconclusive call are fits to weak or partial responses and may not hold up. More than one record can exist for a structure, and the calls need not agree. Active and inactive are the calls of the source. The call rests on the fitted dose curve; in most records, active means well fitted curve in the direction sought with a large enough effect in the repeat runs; inconclusive means weak or mixed curves; inactive means no such curve, though single readings can be large; an effect the other way counts as inactive or inconclusive.
# Biological target: Cytochrome P450 1A2 (Homo sapiens) (UniProt P05177)
# UniProt P05177, sequence (P05177 whole entry, looked up): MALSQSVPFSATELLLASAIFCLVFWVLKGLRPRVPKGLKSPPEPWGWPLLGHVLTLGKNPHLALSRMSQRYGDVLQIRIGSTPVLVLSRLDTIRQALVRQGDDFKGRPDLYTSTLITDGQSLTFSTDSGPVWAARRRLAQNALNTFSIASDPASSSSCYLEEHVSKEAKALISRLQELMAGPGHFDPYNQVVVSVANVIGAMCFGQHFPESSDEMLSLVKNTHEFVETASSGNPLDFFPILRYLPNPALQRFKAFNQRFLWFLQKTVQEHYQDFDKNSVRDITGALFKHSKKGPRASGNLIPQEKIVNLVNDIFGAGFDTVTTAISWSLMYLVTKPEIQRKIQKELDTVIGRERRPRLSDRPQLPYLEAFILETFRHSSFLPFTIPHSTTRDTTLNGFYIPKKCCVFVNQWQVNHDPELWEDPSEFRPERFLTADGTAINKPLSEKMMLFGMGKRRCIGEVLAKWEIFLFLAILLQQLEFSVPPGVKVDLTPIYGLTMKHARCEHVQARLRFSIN
# Assay: Cytochrome P450 Family 1 Subfamily A Member 2 (CYP1A2) small molecule antagonists: luciferase reporter qHTS assay (AID 1671199)
# Details: P450-Glo CYP1A2 enzyme, luciferin luminescence, 1 h; series mostly up to 115 µM; activity change, negative = inhibition: at the top concentration
# How it was run: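 Luminescence from luciferin formed by CYP1A2 from a proluciferin substrate, read 20 min after detection reagent. Compound was pre-incubated 10 min with enzyme-substrate, and reaction started with NADPH regeneration solution for 1 h at room temperature; furafylline control.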
# Further: nearly all actives have a fitted effect of over 50% in size.
# On the % scale 0 is the no-effect control and ±100 the full control effect; potency means the concentration at half of the fitted maximal effect; tags describe the fitted curve by direction and shape.
SMILES,Potency,"activity change, negative = inhibition"
CCCN(CC1CC1)c1c([N+](=O)[O-])cc(C(F)(F)F)cc1[N+](=O)[O-],"inconclusive: 39.9 µM [inhibitor, partial curve]",–
Oc1ccc(Cl)c(Cl)c1,active: 39.3 µM,–
CC[C@H](C)[C@H]1O[C@]2(C=C[C@@H]1C)C[C@@H]1C[C@@H](C/C=C(\C)[C@@H](O[C@H]3C[C@H](OC)[C@@H](O[C@H]4C[C@H](OC)[C@@H](NC)[C@H](C)O4)[C@H](C)O3)[C@@H](C)/C=C/C=C3\CO[C@@H]4[C@H](O)C(C)=C[C@@H](C(=O)O1)[C@]34O)O2,active: 35.6 µM,–
CCOP(=O)(SC(C)CC)N1CCSC1=O (centres undefined),active: 35.6 µM,–
CCOS(=O)(=O)OCC,active: 35.6 µM and inactive,–
C=CC(=O)OCCN(C)C,–,inactive: 2.62%
Cc1ccc(N)cc1N,active: 30.9 µM and active: 35.6 µM,–
CC(=O)c1cc2c(cc1C)C(C)(C)C(C)CC2(C)C (centres undefined),"inconclusive: 63.3 µM [inhibitor, partial curve]",–
C=CCc1cc(OC)c2c(c1)OCO2,active: 1.87 µM,–
O=[N+]([O-])C(Br)Br,–,inactive: -5.14%
OC(Cc1ccccc1Cl)(Cn1[nH]cnc1=S)C1(Cl)CC1 (centres undefined),"inconclusive: 35.6 µM [inhibitor, partial curve]",–
CC(c1ccc(O)cc1)c1ccc(O)cc1,active: 37.4 µM and inactive,–
CCC(C)(CC)c1cc(NC(=O)c2c(OC)cccc2OC)on1,"inconclusive: 63.5 µM [inhibitor, partial curve] and inconclusive: 68.3 µM [inhibitor, partial curve, poor fit]",–
CCCCCCOC(=O)c1ccccc1C(=O)OCCCCCC,active: 22.9 µM and active: 10 µM,–
Nc1ccc(Cc2ccc(N)c(Cl)c2)cc1Cl,active: 27.3 µM,–
CC(C)CCCCCOC(=O)c1ccccc1C(=O)OCCCCCC(C)C,active: 35.2 µM,–
CCCCNC(=O)OCC#CI,active: 3.54 µM and active: 5.64 µM,–

# Biological target: Voltage-gated inwardly rectifying potassium channel KCNH2 (Homo sapiens) (UniProt Q12809)
# UniProt Q12809, sequence (Q12809 whole entry, looked up): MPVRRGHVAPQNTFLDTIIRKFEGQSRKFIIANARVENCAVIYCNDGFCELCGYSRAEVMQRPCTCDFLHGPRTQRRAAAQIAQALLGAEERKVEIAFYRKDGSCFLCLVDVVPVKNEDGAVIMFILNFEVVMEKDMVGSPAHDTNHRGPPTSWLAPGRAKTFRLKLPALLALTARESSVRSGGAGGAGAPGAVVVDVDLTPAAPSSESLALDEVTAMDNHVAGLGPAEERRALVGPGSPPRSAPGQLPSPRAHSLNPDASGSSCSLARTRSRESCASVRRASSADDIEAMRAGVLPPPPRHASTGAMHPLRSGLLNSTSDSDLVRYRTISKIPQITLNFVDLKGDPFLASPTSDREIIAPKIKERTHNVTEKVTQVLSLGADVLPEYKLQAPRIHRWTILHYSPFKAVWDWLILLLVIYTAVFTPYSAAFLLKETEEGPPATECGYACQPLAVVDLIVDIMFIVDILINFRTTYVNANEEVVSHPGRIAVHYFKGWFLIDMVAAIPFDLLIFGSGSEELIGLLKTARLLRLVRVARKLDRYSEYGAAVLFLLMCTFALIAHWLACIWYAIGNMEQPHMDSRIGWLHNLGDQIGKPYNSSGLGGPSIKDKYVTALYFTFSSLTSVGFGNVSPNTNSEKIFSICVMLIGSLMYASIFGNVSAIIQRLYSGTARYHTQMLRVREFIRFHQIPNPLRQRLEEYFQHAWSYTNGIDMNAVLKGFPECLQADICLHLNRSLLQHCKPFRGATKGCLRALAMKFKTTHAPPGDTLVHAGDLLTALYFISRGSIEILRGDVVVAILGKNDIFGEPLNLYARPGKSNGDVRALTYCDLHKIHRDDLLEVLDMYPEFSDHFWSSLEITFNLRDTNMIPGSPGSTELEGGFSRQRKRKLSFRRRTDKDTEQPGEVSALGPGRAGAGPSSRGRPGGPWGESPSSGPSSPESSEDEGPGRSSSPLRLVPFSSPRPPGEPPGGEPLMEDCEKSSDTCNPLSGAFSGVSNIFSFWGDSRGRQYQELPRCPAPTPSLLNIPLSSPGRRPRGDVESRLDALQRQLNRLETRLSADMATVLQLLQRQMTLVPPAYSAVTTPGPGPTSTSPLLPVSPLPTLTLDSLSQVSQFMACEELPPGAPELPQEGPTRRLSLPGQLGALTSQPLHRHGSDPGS
# Assay: Human Ether-a-go-go-Related Gene (hERG) channel small molecule antagonists: fluorescence cell-based qHTS assay (AID 1671200)
# Details: hERG-U2OS cells, FluxOR thallium flux fluorescence; series mostly up to 76.8 µM; activity change, negative = inhibition: at the top concentration
# How it was run: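 Thallium flux as potassium surrogate: FluxOR II dye loaded 1 h at room temperature into hERG-expressing U2OS cells, then stimulus buffer added after 10 min. Kinetic 480 nm excitation/540 nm emission read, 2 min.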
SMILES,Potency,"activity change, negative = inhibition"
COP(=S)(OC)Oc1cc(Cl)c(I)cc1Cl,"inconclusive: 49 µM [inhibitor, partial curve, poor fit]",–
CC1(C)CCC(Cc2ccc(Cl)cc2)C1(O)Cn1cncn1 (centres undefined),"inconclusive: 54.9 µM [inhibitor, partial curve, poor fit]",–
O=[N+]([O-])c1ccc(Oc2ccc(C(F)(F)F)cc2[N+](=O)[O-])cc1,active: 6.16 µM,–
SCc1ccccc1,"inconclusive: 56.6 µM [inhibitor, single point]",–
N#CCCC#N,–,inactive: -4.21%
O=C1C[C@@H]2OCC=C3CN4CC[C@]56c7ccccc7N1[C@H]5[C@H]2[C@H]3C[C@H]46,"inconclusive: 16.9 µM [inhibitor, partial curve]",–
COP(=S)(OC)Oc1cc(Cl)c(Cl)cc1Cl,"inconclusive: 54.6 µM [inhibitor, single point]",–
CSC(=O)c1c(C(F)F)nc(C(F)(F)F)c(C(=O)SC)c1CC(C)C,"inconclusive: 17.3 µM [inhibitor, full curve]",–
CC(C)(C)c1ccc(CSc2cnn(C(C)(C)C)c(=O)c2Cl)cc1,"inconclusive: 13.8 µM [inhibitor, partial curve]",–
NC(=S)Nc1ccccc1,"inconclusive: 55.9 µM [inhibitor, partial curve]",–
C=C(C)C#N,inactive,–
CCC(COC(=O)c1cc(OC)c(OC)c(OC)c1)(c1ccccc1)N(C)C (centres undefined),"inconclusive: 15.1 µM [inhibitor, partial curve]",–
BrC(Br)C(Br)(Br)Br,"inconclusive: 39.1 µM [inhibitor, partial curve]",–
Oc1c(Cl)c(Cl)cc(Cl)c1Cl,–,inactive: -10.1%
Clc1c(Cl)c(Cl)c(Cl)c(Cl)c1Cl,–,inactive: 10.1% [at 6.97 µM]
CCC(C)Nc1c([N+](=O)[O-])cc(C(C)(C)C)cc1[N+](=O)[O-] (centres undefined),"inconclusive: 38.9 µM [inhibitor, partial curve]",–
COc1cc(N)c(Cl)cc1C(=O)NC1CN2CCC1CC2 (centres undefined),"inconclusive: 21.3 µM [inhibitor, partial curve]",–
CCC[N+]1(C)CCCC1,inactive,–
CCCCOC(=O)COC(=O)c1ccccc1C(=O)OCCCC,"inconclusive: 15.4 µM [inhibitor, full curve] and inconclusive: 19.5 µM [inhibitor, partial curve]",–
CCCCN(CCCC)SN(C)C(=O)Oc1cccc2c1OC(C)(C)C2,inactive,–
CCCCCCOC(=O)c1ccccc1C(=O)OCCCCCC,"inconclusive: 12.6 µM [inhibitor, single point]",–
Nc1ccc(Cl)cc1C(=O)c1ccccc1,inconclusive: 49 µM [inhibitor],–
